This is one part of the list.

The chains are these.
B1: ENSG00000070961:be:win_4951|3pUTR|ENSG00000070961|bound_else_gene|NA|bound_elsewhere_windowed (ssRNA)
RNA: GGGAGUUCUACAGUCCGACGAUCGGUAACAGCCCCAUGAAGUACCGCUUUAAUUCCUUGCUGGUAAUCUAAUAGAAUCAGAUUAAGAAAAUUAACACAAUUUUACCAUUUGACAUACUCUUCAUUGAAUUUAGUUUGUCUAAACAACAGAGGAUUGAGCAUCA
B2: chr3:121987322:121988366:-|three_prime_utr|ENSG00000145103|control|control|control (ssRNA)
RNA: GGGAGUUCUACAGUCCGACGAUCCCAAGCACAGCACAACUUCUGUGGCUACUUCUCGGCUCCUGUGUGUCAUCAGCAUCACCUAGGUUUCCAGCUGACUUGGGAACUGCAAGUCUGAGUCUAACAGUUUUUGGCUUAGAUUCUCAACAGAGGAUUGAGCAUCA
B3: chr17:31995613:31995700:+|CDS|ENSG00000178691|msi1_unk|FALSE|overlapping (ssRNA)
RNA: GGGAGUUCUACAGUCCGACGAUCAGCAUGUCUGAAUUUCUUGAAUCUGAAGAUGGGGAAGUAGAACAGCAAAGAACAUAUAGUAGUGGCCACAAUCGUCUGUAUUUCCAUAGUGAUACCUGCUUACCUCUCCGUCCACAAGAACAACAGAGGAUUGAGCAUCA
B4: chr17:81922623:81922724:-|CDS|ENSG00000197063|msi1|FALSE|unique (ssRNA)
RNA: GGGAGUUCUACAGUCCGACGAUCUGCCGCCGGCCUGGGGCCCCUCGUCCCAGGCAAGGUGGCCGCCACCAGCGUCAUCACAAUAGUAAAGUCCAAGACGGAUGCCCGAUCGUAGGGACGCGCGUCUGCCCAGGCGGGUCUUUGCAACAGAGGAUUGAGCAUCA
B5: chr6:149811313:149811414:+|3pUTR|ENSG00000120265|msi1|total|mutant (ssRNA)
RNA: GGGAGUUCUACAGUCCGACGAUCUGUUUCUAAUUUGCUGCUGAUAAUGUAUAUGAACUUAACAUGCUGUGUAAGCUGUGUCCCCGUUCUUGAACAGUUUAUGCAGUGCUGCUUUGCCAAAUAAAGUUAAAAGUAAAAGAGGCACAACAGAGGAUUGAGCAUCA
B6: chr12:52170242:52170446:-|3pUTR|ENSG00000167767|msi1|total|mutant (ssRNA)
RNA: GGGAGUUCUACAGUCCGACGAUCUGGCCCUCCCCUCCUUGGCAUUCAUGGGGGAGCCCAGGAACCCCCCACACCUAUGGGGUCCGAGCUCCUCCUUUCUUCUCACUCCUUCCCCUUCCUCCCUCCAUGCCCACUCCCCCUGCCCAACAGAGGAUUGAGCAUCA
B7: chr8:41263181:41263319:-|3pUTR|ENSG00000104332|msi1|FALSE|unique (ssRNA)
RNA: GGGAGUUCUACAGUCCGACGAUCCUUAAGUGAUUUGCCUGUAAUUUUGGAUGAUUAAAAAAUGUGUAUAUAUAUUAGCUAAUUAGAAAUAUUCUACUUCUCUGUUGUCAAACUGAAAUUCAGAGCAAGUUCCUGAGUGCGUGGCAACAGAGGAUUGAGCAUCA
B8: ENSG00000075240:stop:overlap|stop_codon|ENSG00000075240|stop_codon|NA|stop_codon (ssRNA)
RNA: GGGAGUUCUACAGUCCGACGAUCAGACCAUUCUCAGCCAGUACAUCAAGAUCACCUCAGCGGCAGCGUCUGGCGGGGACAGCUAGUAUUGACUUGCCCAGGACGUUGCUGGAAUUUUCUUUUUCUUUUUCUUUUUCUUUUUUUCAACAGAGGAUUGAGCAUCA
B9: chr22:36281740:36281783:-|3pUTR|ENSG00000100345|msi1_unk|total|mutant (ssRNA)
RNA: GGGAGUUCUACAGUCCGACGAUCUCUGACAGCCAGAGCGUCCGAGGGGCCAGCGGCCCUCCCAGGCGAUCUUGUGUCUACUCCCGGACUGGGCCCGAGGGUGGUUUACCUGCACCGUUGACUCAGUACCGUUUAAAAAUCUGCCAACAGAGGAUUGAGCAUCA
B10: chr1:227780961:227781062:+|3pUTR|ENSG00000143740|unk|FALSE|unique (ssRNA)
RNA: GGGAGUUCUACAGUCCGACGAUCCCUGGAAGAGGCCGCCCUCGUCUUGUCUCGGCUCCCUUUCAUGGACAGACUGGCCUUCUUAGCUGUACUAUAAAUUUGUGAGUGAAGUUAGAGCCCAGCUCACUUAGCCAGCUCACUUUGCAACAGAGGAUUGAGCAUCA
B11: chr7:6023389:6023508:+|CDS|ENSG00000106305|unk|FALSE|unique (ssRNA)
RNA: GGGAGUUCUACAGUCCGACGAUCGUUCUCUCUGUUUGGCCAGAAGCAUAAUGCUGUCAACGCAACCCUUAUAGAUAGCUGGGUAGAUAUUGCGAUUUUUCAGUUAAAAGAGGGAAGCAGUAAAGAAAAAGCCGCUGUUUUCCGCAACAGAGGAUUGAGCAUCA
B12: chr19:10683396:10683509:+|CDS|ENSG00000129351|unk|total|mutant (ssRNA)
RNA: GGGAGUUCUACAGUCCGACGAUCGUUCCAAGGUGCUGGUUCCAACAAAAAGGUGGCGAAGGCCUACGCUGCUCUUGCUGCCCCCGAAAAGCUUUUCCCUGACACCCCUCUCGCCCUUGAUGCCAACAAAAAGAAGAGAGCCCCCAACAGAGGAUUGAGCAUCA
B13: ENSG00000107863:be:win_1251|CDS|ENSG00000107863|bound_else_gene|NA|bound_elsewhere_windowed (ssRNA)
RNA: GGGAGUUCUACAGUCCGACGAUCAGCAUCUCAAAGCACGACAGAUUAUAACCAGGUCGUCCCCAACCGCACUACUUUGCAGGGACGACGUCGAAGCACCUCUCAUGAUCGAGUGCCCCAGUCUGUCCAGAUACGGCAACGCAGCAACAGAGGAUUGAGCAUCA
B14: chr17:67854386:67854487:+|CDS|ENSG00000171634|unk|FALSE|unique (ssRNA)
RNA: GGGAGUUCUACAGUCCGACGAUCAGAGGCAGAGGACUACCCAUAUGGACCAGUAGAGAACAAGAUCAAAGUUCUACAGUUUCUAGUCGAUCAGUUUCUUACAACAAAUAUUGCUCGAGAGGAAUUGAUGUCUGAAGGGGUGAUCAACAGAGGAUUGAGCAUCA
B15: chr13:24435276:24435388:-|CDS|ENSG00000102699|unk|total|mutant (ssRNA)
RNA: GGGAGUUCUACAGUCCGACGAUCCAAAAGAAAAAUGGAAUUAUCUCAGCCAGAAGUUUCUGAAGAUUUUGAAGAGGAUGGCUCCGGUGUACUACCAGCUUUCACAUCAAAUUUGGAACGUGGAGGUGUGGAAAAGCUAUUGGACAACAGAGGAUUGAGCAUCA
B16: chr3:48658964:48659065:-|CDS|ENSG00000008300|msi1|total|mutant (ssRNA)
RNA: GGGAGUUCUACAGUCCGACGAUCCGAUGUCUCCGACCACCUCUUCUACUCCUUUGAGCGUGGCAAUGAGCUGCAGCUGCUGGCCGUCAACCAGACCAGUGGGGAGCUGCGACUCAGCCGAAAGCCCGACAAUAACCGCCCACUCAACAGAGGAUUGAGCAUCA
B17: chr12:105021166:105021267:-|3pUTR|ENSG00000136010|unk|total|mutant (ssRNA)
RNA: GGGAGUUCUACAGUCCGACGAUCAGUCAGACAGUGUCACUUCACUCGUCUGUUUAAAACCUUUCAAUGGCCCCCAUUUCACGCCGACCAAAGUCCAACGUAUUUACCUGGCCUACUGAUCUUGCUCCCCGCUACCUCUGACCUCAACAGAGGAUUGAGCAUCA
B18: chr1:31434308:31434366:+|3pUTR|ENSG00000168528|msi1_unk|FALSE|overlapping (ssRNA)
RNA: GGGAGUUCUACAGUCCGACGAUCGCCAGGCUGAGCCCCCACCCCUGCCCCAGCUCCAGGACCUGCCCCUGAGCCGGGCCUUCUAGUCGUAGUGCCUUCAGGGUCCGAGGAGCAUCAGGCUCCUGCAGAGCCCCAUCCCCCCGCCAACAGAGGAUUGAGCAUCA
B19: ENSG00000070961:be:win_3601|CDS_3pUTR|ENSG00000070961|bound_else_gene|NA|bound_elsewhere_windowed (ssRNA)
RNA: GGGAGUUCUACAGUCCGACGAUCAACAAGUCUGCUACCUCUUCAUCCCCAGGAAGCCCACUACAUAGUUUGGAAACAUCACUCUGAUUGUAAGCUGAAUGUUAACACACUAGCUGCAUUGUAAAGAAACAAAUUGAAACUGGGCAACAGAGGAUUGAGCAUCA
B20: ENSG00000198589:be:win_1051|CDS|ENSG00000198589|bound_else_gene|NA|bound_elsewhere_windowed (ssRNA)
RNA: GGGAGUUCUACAGUCCGACGAUCGCAGAUGCUAAUAGAGUAUUCUGUGGUCAGAUGACUGCAGUUUACCUUUUCAGUGAAGCUCUAAAUGCAGCUCAGAUAUUUGCUAUUUAUCAGUUGGGCCUGGGAUACAAGGGUACAUUUCAACAGAGGAUUGAGCAUCA
B21: chr8:120459219:120459329:+|CDS|ENSG00000172167|unk|FALSE|unique (ssRNA)
RNA: GGGAGUUCUACAGUCCGACGAUCUUUGGAUUUGAAAUUAGUUUUCCUGAAUUUUGUUUAAAGGGAGUCACACUUAAGAAUUUUAGUACUUCUAAUUUAAAUACUGACUUCCUUGCCAAAAAGAUCAUACCAUCAAAGGAUAAGCAACAGAGGAUUGAGCAUCA
B22: chr5:154898482:154898583:-|CDS|ENSG00000082516|unk|FALSE|unique (ssRNA)
RNA: GGGAGUUCUACAGUCCGACGAUCUUUGGCCAAAAAGGGGGAUGCGGCAUCACUUAGAACGGCUGCAGAGUUGGCUGCCAUCGUAGGAGAGGAUGAGUUGUCUGCUUCCCUGGCUCUCAGAUGUGCCCAAGAGCUGCUUCUGGCCAACAGAGGAUUGAGCAUCA

This assay concerns the target MSI1 full-length (mouse, UniProt Q61474 1-362). As to the kind of experiment: nsRBNS (natural sequence RNA bind-n-seq); RBNS binding buffer (assumed for nsRBNS): 25 mM Tris pH 7.5, 150 mM KCl, 3 mM MgCl2, 0.01% Triton X-100, 500 ug/ml BSA, 20 U/ml SUPERase-In, 4 C; UNK is unkempt and MSI1 is Musashi-1; names of the RNAs are library labels; protein concentration not given here; high values mean tight binding.
Sequence of UniProt Q61474 (Q61474 whole entry): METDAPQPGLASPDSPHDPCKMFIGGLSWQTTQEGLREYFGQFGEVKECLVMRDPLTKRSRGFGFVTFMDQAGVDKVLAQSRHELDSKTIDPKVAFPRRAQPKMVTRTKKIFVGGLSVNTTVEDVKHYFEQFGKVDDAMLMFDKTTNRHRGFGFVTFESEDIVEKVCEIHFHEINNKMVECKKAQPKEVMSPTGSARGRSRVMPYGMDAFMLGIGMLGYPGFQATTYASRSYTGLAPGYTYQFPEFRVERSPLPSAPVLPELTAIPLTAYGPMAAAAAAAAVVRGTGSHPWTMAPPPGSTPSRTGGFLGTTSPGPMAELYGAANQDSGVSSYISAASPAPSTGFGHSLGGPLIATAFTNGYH
For the molecule B1, the binding signal came to 1.43 enrichment R. In the case of B2 it was 0.365 enrichment R; in that of B3, 1.89 enrichment R. B4 registered a binding signal of 0.472 enrichment R. Next, B5: 0.488 enrichment R; B6: 0.823 enrichment R; B7: 21.3 enrichment R. B8: the binding signal is 1.79 enrichment R. In turn, B9 gave a binding signal of 0.375 enrichment R. In the case of B10 it was 0.793 enrichment R; in that of B11, 7.45 enrichment R. The molecule B12 yielded a binding signal of 0.675 enrichment R. Next, B13: 0.374 enrichment R; B14: 0.706 enrichment R; B15: 0.333 enrichment R. Next, B16: 0.463 enrichment R; B17: 0.608 enrichment R.

In turn, B18 yielded a binding signal of 1.98 enrichment R.

Regarding B19, the binding signal stood at 0.399 enrichment R. In the case of B20 it was 6.62 enrichment R; in that of B21, 1.8 enrichment R. As to B22, the binding signal amounted to 0.698 enrichment R.

Source of the values: PMC12136788.
